Results from the RNAGym collection of RNA variant scans (doi:10.1093/nar/gkz1192).
Read counts are not given, so values of variants with three or more changes are uncertain.

B1: CPEB3 Ribozyme (parent)
chain: UAACAGGGGGCCACAGCAGAAGCGUUCACGUCGCAGCCCCUGUCAGAUUCUGGUGAAUCUGCGAAUUCUGCUGUAUAUCUC

Variants of: B1
Assay: self-cleavage, relative activity (ratio to wild type); higher = more cleavage; in vitro, sequencing
Method in brief: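 After error-prone PCR and barcoding, CPEB3 ribozyme mutant libraries were transcribed with T7 RNA polymerase at 37°C for 5 hours, then given 15 min with DNase I before an EDTA stop, and they cleaved during both steps. Reverse transcription with template switching preceded Illumina sequencing. Relative activity divides a variant's cleaved/total read fraction by the unmutated ribozyme's. At least 5 reads were required per variant, and three batches were averaged.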

Question: With C37G U54A U69C C71U U78C C81G as the variant, how does the self-cleavage read?
Answer: 0.23

Question: With G36A C38U U74C as the variant, how does the self-cleavage read?
Answer: 0.15

Question: Which self-cleavage does the source give for A35G U60C A64C here?
Answer: 0.38

Question: Which self-cleavage does the source give for A35U U54C U76C here?
Answer: 0.3

Question: With G36A A47G A77G U78C as the variant, how does the self-cleavage read?
Answer: 0.31

Question: For C37U A64G U69C, which self-cleavage is on record?
Answer: 0.36

Question: Which self-cleavage does the source give for A35U A45G U66C U78C here?
Answer: 0.07

Question: With G36A A45G U51A as the variant, how does the self-cleavage read?
Answer: 0.09

Question: For A35G U60C A75G, which self-cleavage is on record?
Answer: 1.07

Question: Which self-cleavage does the source give for G36U A56U U60A A65G here?
Answer: 0.08

Question: For A35U A47U U60C, which self-cleavage is on record?
Answer: 0.15

Question: For A35U U49C U60A U80A, which self-cleavage is on record?
Answer: 0.06

Question: With C38U U60C U80C as the variant, how does the self-cleavage read?
Answer: 0.16

Question: For A35U A57G A64G, which self-cleavage is on record?
Answer: 0.34

Question: Which self-cleavage does the source give for C38U C40U A64G U67C U72A A77U here?
Answer: 0.05

Question: With A35U A45G U51A A64U as the variant, how does the self-cleavage read?
Answer: 0.15

Question: With A35G U58C U60C A64G as the variant, how does the self-cleavage read?
Answer: 0.23

Question: Which self-cleavage does the source give for A35U A56G A65U U69C here?
Answer: 0.12

Question: For A35U C40A U66C U69G, which self-cleavage is on record?
Answer: 0.12

Question: For A35U A47G U60C A64G, which self-cleavage is on record?
Answer: 0.13

Question: For A35U U43C U48C, which self-cleavage is on record?
Answer: 0.17

Question: Which self-cleavage does the source give for C38U C50A A56G U74A here?
Answer: 0.52

Question: With A35G U72A U76A as the variant, how does the self-cleavage read?
Answer: 1.21

Question: With G36A A45U G61A as the variant, how does the self-cleavage read?
Answer: 0.22

Question: For A35U U72C A77U, which self-cleavage is on record?
Answer: 0.56

Question: For C37U U54A A64U, which self-cleavage is on record?
Answer: 0.17

Question: With C37U A57U U74A as the variant, how does the self-cleavage read?
Answer: 0.4

Question: Which self-cleavage does the source give for C39A A57G U66A here?
Answer: 0.08

Question: With C39A U48C U51G A64U as the variant, how does the self-cleavage read?
Answer: 0.14

Question: With C38U A57G A64G as the variant, how does the self-cleavage read?
Answer: 0.51

Question: With A35U U41A A65G U69C U78A as the variant, how does the self-cleavage read?
Answer: 0.19

Question: With C37U A65U U78C as the variant, how does the self-cleavage read?
Answer: 0.05

Question: Which self-cleavage does the source give for A35U U49A U51A A57G here?
Answer: 0.41

Question: Which self-cleavage does the source give for C37U A56U C81A here?
Answer: 0.39

Question: With C38A A47G U80C as the variant, how does the self-cleavage read?
Answer: 0.05

Question: Which self-cleavage does the source give for C39A A45G U54A U74A here?
Answer: 0.19

Question: With A35U U67C U69A as the variant, how does the self-cleavage read?
Answer: 0.11

Question: With G36A U74C U80C as the variant, how does the self-cleavage read?
Answer: 0.2

Question: Which self-cleavage does the source give for A35U U69A U72C here?
Answer: 0.18

Question: For A35G U58C U66C U78C, which self-cleavage is on record?
Answer: 0.67

Question: For A35U G46U U51C, which self-cleavage is on record?
Answer: 0.13

Question: For A35G U60C U80A, which self-cleavage is on record?
Answer: 1.12

Question: With A35U A57G C68A U69C as the variant, how does the self-cleavage read?
Answer: 0.11

Question: Which self-cleavage does the source give for A35U C39A G46A here?
Answer: 0.11

Question: For C39A U48C U54C, which self-cleavage is on record?
Answer: 0.09

Question: With A35U U41C U43C U48C as the variant, how does the self-cleavage read?
Answer: 0.06

Question: For A35U U41G A47G A56G A64G, which self-cleavage is on record?
Answer: 0.16

Question: For A35U U43A G73U, which self-cleavage is on record?
Answer: 0.92

Question: With A35U U41G A45U A64U as the variant, how does the self-cleavage read?
Answer: 0.14

Question: With A35U U43C U76A as the variant, how does the self-cleavage read?
Answer: 0.33

Question: With G36U C40U A45C as the variant, how does the self-cleavage read?
Answer: 0.27

Question: With A35G U69C C71A U76C as the variant, how does the self-cleavage read?
Answer: 0.47

Question: Which self-cleavage does the source give for A35U U66C A77U U78A here?
Answer: 0.14

Question: For A35U A57G U69A, which self-cleavage is on record?
Answer: 0.18

Question: For A35U U48C U54C C62U U74A, which self-cleavage is on record?
Answer: 0.1

Question: Which self-cleavage does the source give for C37U C38G U49C U51A here?
Answer: 0.13

Question: Which self-cleavage does the source give for C39A A56G U69A here?
Answer: 0.14

Question: For G36A U43C U54A, which self-cleavage is on record?
Answer: 0.11

Question: For C38U A45U U66C A75U, which self-cleavage is on record?
Answer: 0.15

Question: With A35U U41C U74C as the variant, how does the self-cleavage read?
Answer: 0.99

Question: With A35U U48C U49A U60C as the variant, how does the self-cleavage read?
Answer: 0.11

Question: For C38U U41A U48C U66C, which self-cleavage is on record?
Answer: 0.14

Question: With A35U G52C C59A as the variant, how does the self-cleavage read?
Answer: 0.16

Question: Which self-cleavage does the source give for A35U A64U U66C here?
Answer: 0.15

Question: Which self-cleavage does the source give for C37U U43C U78C here?
Answer: 0.13

Question: With A35U A45G U48C U60A as the variant, how does the self-cleavage read?
Answer: 0.12

Question: Which self-cleavage does the source give for A35U A47G U49C U51C U67C here?
Answer: 0.1

Question: For C37U A47G U48C, which self-cleavage is on record?
Answer: 0.18

Question: With A35U U49C A57G as the variant, how does the self-cleavage read?
Answer: 0.08

Question: Which self-cleavage does the source give for C37U U41C G42C A64U here?
Answer: 0.19

Question: For A35U G36A C38U A45G, which self-cleavage is on record?
Answer: 0.09

Question: For A35U U66A U72A, which self-cleavage is on record?
Answer: 0.09

Question: With C38U U48A U54C as the variant, how does the self-cleavage read?
Answer: 0.13

Question: With A35G U58C U60A U72A U76C as the variant, how does the self-cleavage read?
Answer: 0.59

Question: For A35U A65U U80C, which self-cleavage is on record?
Answer: 0.42

Question: Which self-cleavage does the source give for A35U A47G G52U U60G here?
Answer: 0.11

Question: For A35U A47G U80A, which self-cleavage is on record?
Answer: 0.65

Question: With A35U A47G U80C as the variant, how does the self-cleavage read?
Answer: 0.66

Question: Which self-cleavage does the source give for A35G U67C A75G here?
Answer: 0.82

Question: With C38A U51G A75C as the variant, how does the self-cleavage read?
Answer: 0.41

Question: Which self-cleavage does the source give for A35U U41A U54A here?
Answer: 0.18

Question: With A35G U60C C71A as the variant, how does the self-cleavage read?
Answer: 0.57

Question: Which self-cleavage does the source give for C39A U54C U66C here?
Answer: 0.14
